Results taken from PubChem BioAssay (NCI).
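Assay format: 96-well plates, 48-hour exposure. GI50 = concentration required for 50% inhibition of growth.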 Not every entry of the source has a single result; some have several. The other results are left out here. An entry can have further records. The tests behind the records often covered other concentration ranges, which the source does not state; some values may only mark the edge of a range.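 TGI: concentration producing complete growth inhibition.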

Tests used:
Assay in all cases: NCI tumour cell line growth inhibition, 48 h
NCI-H23 lung = tested on: NCI-H23 lung
IGROV1 ovarian = tested on: IGROV1 ovarian
A498 renal = tested on: A498 renal
A549 NSCLC = tested on: A549 NSCLC
NCI-H226 lung = tested on: NCI-H226 lung
OVCAR-5 ovarian = tested on: OVCAR-5 ovarian
TK-10 renal = tested on: TK-10 renal
UO-31 renal = tested on: UO-31 renal
HOP-92 NSCLC = tested on: HOP-92 NSCLC
SK-MEL-28 melanoma = tested on: SK-MEL-28 melanoma
SNB-75 CNS = tested on: SNB-75 CNS

SMILES	TGI (NCI-H23 lung)	TGI (IGROV1 ovarian)	TGI (A498 renal)	GI50 (A549 NSCLC)	GI50 (NCI-H226 lung)	GI50 (OVCAR-5 ovarian)	GI50 (TK-10 renal)	GI50 (UO-31 renal)	GI50 (HOP-92 NSCLC)	TGI (HOP-92 NSCLC)	GI50 (SK-MEL-28 melanoma)	GI50 (SNB-75 CNS)
O=C1NC2(CCCCC2)C(=O)N1CCN(CCCl)CCCl	25 µM and > 250 µM	25 µM and > 250 µM										
CC[C@H](C)[C@H](NC(=O)[C@H]1CCCCN1C)C(=O)N(C)[C@H](C[C@@H](OC(C)=O)c1cccc(C(=O)N[C@@H](Cc2ccccc2)C[C@H](C)C(=O)O)n1)C(C)C			858 nM and < 2.5 nM	34.9 nM and 2.5 nM	127 nM and 7.78 nM	47.9 nM and 2.5 nM	265 nM and > 25 µM	47.3 nM and 1.21 µM	0.428 nM and 2.97 µM	93.7 nM and > 25 µM	56 nM and > 25 µM	1.74 nM and 14.4 µM
